The list shows a part of the results. Single values are uncertain, as repeats are few or missing.
test system: WM1745; assay: cell count relative to DMSO control; melanoma cells; higher = more viable cells; conditions: library dose: standard library concentration; 72 h
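Further: cells treated in 1,536-well plates, then fixed and DAPI-stained, with nuclei counted from automated high-throughput microscope images.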

Row | Structure (SMILES) | cell count
1 | CC1(C)NC(=O)N(c2ccc([N+](=O)[O-])c(C(F)(F)F)c2)C1=O [nilutamide] + CCc1ccc(CCOc2ccc(CC3SC(=O)NC3=O)cc2)nc1 [pioglitazone] (first compound 5 µM, partner dose 10 µM) | 68.6%
2 | O=C(Nc1cccc(Cl)c1)Nc1ncc(CCNc2ncnc3ccsc23)s1 + CC(C)CCN1c2nc(Nc3cc(F)c(O)c(F)c3)ncc2N(C)C(=O)C1C [BID1870] (first compound 0.004 µM, partner dose 1 µM) | 68.2%
3 | COc1cc(Nc2ncc(F)c(Nc3ccc4c(n3)NC(=O)C(C)(C)O4)n2)cc(OC)c1OC [Tamatinib] + N#Cc1c(O)c2c(-c3ccc(-c4ccccc4O)cc3)csc2[nH]c1=O [A769662] (first compound 2 µM, partner dose 10 µM) | 52.2%
4 | O=C(Nc1cccc(Cl)c1)Nc1ncc(CCNc2ncnc3ccsc23)s1 + COC(=O)c1sccc1S(=O)(=O)Nc1ccc(Nc2ccccc2)cc1OC [GSK0660] (first compound 0.004 µM, partner dose 5 µM) | 78.8%
5 | O=C(Nc1cccc(Cl)c1)Nc1ncc(CCNc2ncnc3ccsc23)s1 + c1cc(-c2cnn3cc(-c4ccc(OCCN5CCCCC5)cc4)cnc23)ccn1 [Dorsomorphin] (first compound 0.004 µM, partner dose 2 µM) | 44%
6 | CC1(C)NC(=O)N(c2ccc([N+](=O)[O-])c(C(F)(F)F)c2)C1=O [nilutamide] + COc1ccc2c(c1)CCC1C2CCC2(C)C(NCCCCCCN3C(=O)C=CC3=O)CCC12 [U73122] (first compound 5 µM, partner dose 2 µM) | 85.5%
7 | O=C(Nc1cccc(Cl)c1)Nc1ncc(CCNc2ncnc3ccsc23)s1 + Oc1cc(-c2nc(-c3ccccc3)[nH]c2-c2ccncc2)ccc1Cl [L779450] (first compound 0.004 µM, partner dose 1 µM) | 51.7%
8 | CC1(C)NC(=O)N(c2ccc([N+](=O)[O-])c(C(F)(F)F)c2)C1=O [nilutamide] + Cc1cc([N+](=O)[O-])ccc1NS(=O)(=O)c1cc(Cl)ccc1Cl [FH535] (first compound 5 µM, partner dose 5 µM) | 67%
9 | O=C(O)c1ccc(-c2c[nH]c3ncc(-c4ccccc4)cc23)cc1C1CCCC1 + CC(C)CCN1c2nc(Nc3cc(F)c(O)c(F)c3)ncc2N(C)C(=O)C1C [BID1870] (first compound 0.8 µM, partner dose 1 µM) | 83.5%
10 | Cn1cncc1[C@@](N)(c1ccc(Cl)cc1)c1ccc2c(c1)c(-c1cccc(Cl)c1)cc(=O)n2C [tipifarnib] + COc1cc(N2CCC(N3CCN(C)CC3)CC2)ccc1Nc1ncc(Cl)c(Nc2ccccc2S(=O)(=O)C(C)C)n1 [NVP-TAE684] (first compound 0.05 µM, partner dose 0.4 µM) | 49%
11 | O=C(O)c1ccc(-c2c[nH]c3ncc(-c4ccccc4)cc23)cc1C1CCCC1 + COc1ccc2c(c1)CCC1C2CCC2(C)C(NCCCCCCN3C(=O)C=CC3=O)CCC12 [U73122] (first compound 0.8 µM, partner dose 2 µM) | 76%
12 | C[C@@H]1CCN(C(=O)CC#N)C[C@@H]1N(C)c1ncnc2[nH]ccc12 + O=C(O)C(=O)Nc1sc2c(c1C(=O)O)CCNC2 [TCS401] (first compound 5 µM, partner dose 8.33333 µM) | 67%
13 | C[C@@H]1CCN(C(=O)CC#N)C[C@@H]1N(C)c1ncnc2[nH]ccc12 + CCCCCCCCCCCC1=C(O)C(=O)C=C(O)C1=O [Embelin] (first compound 5 µM, partner dose 6 µM) | 104%
14 | O=C(Nc1cccc(Cl)c1)Nc1ncc(CCNc2ncnc3ccsc23)s1 + COc1ccc(COc2ccc(Cc3cnc(N)nc3N)cc2OC)cc1 [GW2580] (first compound 0.004 µM, partner dose 5 µM) | 83.2%
15 | COc1cc(Nc2ncc(F)c(Nc3ccc4c(n3)NC(=O)C(C)(C)O4)n2)cc(OC)c1OC [Tamatinib] + COc1ccc2c(c1)CCC1C2CCC2(C)C(NCCCCCCN3C(=O)C=CC3=O)CCC12 [U73122] (first compound 2 µM, partner dose 2 µM) | 45.5%
16 | C[C@@H]1CCN(C(=O)CC#N)C[C@@H]1N(C)c1ncnc2[nH]ccc12 + O=C(Nc1ccccc1)c1cc([N+](=O)[O-])ccc1Cl [GW9662] (first compound 5 µM, partner dose 10 µM) | 68.3%

Row | Structure (SMILES) | cell count
17 | C[C@@H]1CCN(C(=O)CC#N)C[C@@H]1N(C)c1ncnc2[nH]ccc12 + CC(C)CCN1c2nc(Nc3cc(F)c(O)c(F)c3)ncc2N(C)C(=O)C1C [BID1870] (first compound 5 µM, partner dose 1 µM) | 82.7%
18 | O=C(O)c1ccc(-c2c[nH]c3ncc(-c4ccccc4)cc23)cc1C1CCCC1 + Oc1cc(-c2nc(-c3ccccc3)[nH]c2-c2ccncc2)ccc1Cl [L779450] (first compound 0.8 µM, partner dose 1 µM) | 61.8%
19 | Cn1cncc1[C@@](N)(c1ccc(Cl)cc1)c1ccc2c(c1)c(-c1cccc(Cl)c1)cc(=O)n2C [tipifarnib] + O=S(=O)(c1ccccc1)N(CC(F)(F)F)c1ccc(C(O)(C(F)(F)F)C(F)(F)F)cc1 [T0901317] (first compound 0.05 µM, partner dose 7 µM) | 79.8%
20 | CC1(C)NC(=O)N(c2ccc([N+](=O)[O-])c(C(F)(F)F)c2)C1=O [nilutamide] + O=S(=O)(c1ccccc1)N(CC(F)(F)F)c1ccc(C(O)(C(F)(F)F)C(F)(F)F)cc1 [T0901317] (first compound 5 µM, partner dose 7 µM) | 63.3%
21 | O=C(Nc1cccc(Cl)c1)Nc1ncc(CCNc2ncnc3ccsc23)s1 + COc1ccc(-c2ccc3c(N4CCOCC4)nc(N4C[C@@H](C)O[C@@H](C)C4)nc3n2)cc1CO [KU0063794] (first compound 0.004 µM, partner dose 0.1 µM) | 74.1%
22 | CC1(C)NC(=O)N(c2ccc([N+](=O)[O-])c(C(F)(F)F)c2)C1=O [nilutamide] + CCCCCCCCCCCC1=C(O)C(=O)C=C(O)C1=O [Embelin] (first compound 5 µM, partner dose 6 µM) | 79.3%
23 | COc1cc(Nc2ncc(F)c(Nc3ccc4c(n3)NC(=O)C(C)(C)O4)n2)cc(OC)c1OC [Tamatinib] + COc1cc(N2CCC(N3CCN(C)CC3)CC2)ccc1Nc1ncc(Cl)c(Nc2ccccc2S(=O)(=O)C(C)C)n1 [NVP-TAE684] (first compound 2 µM, partner dose 0.4 µM) | 14.2%
24 | COc1cc(Nc2ncc(F)c(Nc3ccc4c(n3)NC(=O)C(C)(C)O4)n2)cc(OC)c1OC [Tamatinib] + Cc1cc([N+](=O)[O-])ccc1NS(=O)(=O)c1cc(Cl)ccc1Cl [FH535] (first compound 2 µM, partner dose 5 µM) | 32.2%
25 | CC1(C)NC(=O)N(c2ccc([N+](=O)[O-])c(C(F)(F)F)c2)C1=O [nilutamide] + COc1ccc(-c2ccc3c(N4CCOCC4)nc(N4C[C@@H](C)O[C@@H](C)C4)nc3n2)cc1CO [KU0063794] (first compound 5 µM, partner dose 0.1 µM) | 84.3%
26 | O=C(O)c1ccc(-c2c[nH]c3ncc(-c4ccccc4)cc23)cc1C1CCCC1 + COc1cc(N2CCC(N3CCN(C)CC3)CC2)ccc1Nc1ncc(Cl)c(Nc2ccccc2S(=O)(=O)C(C)C)n1 [NVP-TAE684] (first compound 0.8 µM, partner dose 0.4 µM) | 59.3%
27 | Cn1cncc1[C@@](N)(c1ccc(Cl)cc1)c1ccc2c(c1)c(-c1cccc(Cl)c1)cc(=O)n2C [tipifarnib] + CCCCCCCCCCCC1=C(O)C(=O)C=C(O)C1=O [Embelin] (first compound 0.05 µM, partner dose 6 µM) | 89.6%
28 | CC1(C)NC(=O)N(c2ccc([N+](=O)[O-])c(C(F)(F)F)c2)C1=O [nilutamide] + CCN(CC)CCCCNc1ncc2cc(-c3cc(OC)cc(OC)c3)c(NC(=O)NC(C)(C)C)nc2n1 [PD173074] (first compound 5 µM, partner dose 0.5 µM) | 115%
29 | C[C@@H]1CCN(C(=O)CC#N)C[C@@H]1N(C)c1ncnc2[nH]ccc12 + CCc1ccc(CCOc2ccc(CC3SC(=O)NC3=O)cc2)nc1 [pioglitazone] (first compound 5 µM, partner dose 10 µM) | 97.4%
30 | Cn1cncc1[C@@](N)(c1ccc(Cl)cc1)c1ccc2c(c1)c(-c1cccc(Cl)c1)cc(=O)n2C [tipifarnib] + Oc1cc(-c2nc(-c3ccccc3)[nH]c2-c2ccncc2)ccc1Cl [L779450] (first compound 0.05 µM, partner dose 1 µM) | 55.7%
31 | Cn1cncc1[C@@](N)(c1ccc(Cl)cc1)c1ccc2c(c1)c(-c1cccc(Cl)c1)cc(=O)n2C [tipifarnib] + COc1ccc(-c2ccc3c(N4CCOCC4)nc(N4C[C@@H](C)O[C@@H](C)C4)nc3n2)cc1CO [KU0063794] (first compound 0.05 µM, partner dose 0.1 µM) | 90.1%
32 | Cn1cncc1[C@@](N)(c1ccc(Cl)cc1)c1ccc2c(c1)c(-c1cccc(Cl)c1)cc(=O)n2C [tipifarnib] + CCN(CC)CCCCNc1ncc2cc(-c3cc(OC)cc(OC)c3)c(NC(=O)NC(C)(C)C)nc2n1 [PD173074] (first compound 0.05 µM, partner dose 0.5 µM) | 78.4%
